From PubChem BioAssay AID1745853 (National Center for Advancing Translational Sciences (NCATS), 2022) come the findings set out here.

What all share (experiment): Primary Screen for Target Class Profiling of Small Molecule Inhibitors of Methyltransferases
Assay [1] concerns the target Glycine N-methyltransferase (Homo sapiens) (UniProt Q14749). As to conditions: purified enzyme, MTase-Glo SAH luminescence; measured here: GNMT inhibition; at 40 µM; stronger effect = lower value. From the text:
(§1) PI: Matthew D. Hall Ph.D. and Quinlin M. Hanson Ph.D.
(§2) National Center for Advancing Translational Sciences (NCATS)
(§3) National Institute of Health (NIH), Rockville, MD
(§4) Target class profiling (TCP) is a chemical biology approach amenable to investigating understudied biological targets. TCP is achieved by developing a generalizable assay platform and applying it to screen a curated set of compound libraries against representative members of a target class. Small molecule methyltransferases (SMMTase) are a subclass of methyltransferase that act on metabolites to modulate signaling pathways, metabolize xenobiotics, or balance the available methyl pool. We screened four curated libraries totaling 27,574 unique compounds against the SMMTases nicotinamide N-methyltransferase (NNMT), phenylethanolamine N-methyltransferase (PNMT), histamine N-methyltransferase (HNMT), glycine N-methyltransferase (GNMT), catechol O-methyltransferase (COMT), and guanidinoacetate N-methyltransferase (GAMT). The data generated by this TCP can be leveraged for informed tool molecule development. For example, in the associated publication we identified a chemotype of HNMT-selective inhibitors. Additionally, we identified a putative SMMTase-selective inhibitor with potential as a tool molecule for studying broader methyltransferase biology.
(§5) High-through put screening assays were developed at the National Center for Advancing Translational Science (NCATS) for the enzymes NNMT, PNMT, HNMT, GNMT, COMT, and GAMT. Enzymatic activity was measured as a function of SAM cofactor conversion using the MTase Glo kit (Promega) for all enzymes. All assays were performed in 1536-well format with substrates and SAM concentrations at KM values. Enzyme concentration and assay timing were optimized for 10-20% SAM conversion. Initial screening of 27,574 compounds was done as single-point assays using the highest compound concentration (40 uM). […] These compounds were replated in 11-point dose response and assayed against NNMT, PNMT, HNMT, GNMT, COMT, GAMT, and a counter-assay. The IC50 and efficacy (maximal response) values were determined for each dose-response curve. These values are also accounted for in the area under the curve (AUC) values.
(§6) PROTOCOL TABLE (as described by Inglese J, Shamu CE and Guy RK. 2007)
(§7) SEQUENCE No. (e.g., 1, 2, 3, etc.); […] (e.g., Cells, Incubation, Reagent, etc.); VALUE; DESCRIPTION.
(§8) 1; Reagent; 2 uL; SMMTase Enzyme (2x) in reaction buffer, columns 1- 48.
(§9) 2; Reagent; 1 uL; SAM (4x) in reaction buffer, columns 1-48.
(§10) 3; Controls; 23 nL; DMSO in column 4; sinefungin in DMSO (0 uM - 40 uM) in 7-point 1:2 dilution series (n = 2) in column 2.
(§11) 4; Compounds; 23 nL; Columns 5-48.
(§12) 5; Reagent; 1 uL; Substrate (4x) in reaction buffer, columns 2-48.
(§13) 6; Time; 20-30 min; Incubation.
(§14) 7; Reagent; 1 uL; MTase-Glo reagent (5X), columns 1-48.
(§15) 8; Time; 30 min; Incubation.
(§16) 9; Reagent; 5 uL; MTase-Glo Detection reagent, columns 1-48.
(§17) 10; Time; 30 min; Incubation, luminescence evolution.
(§18) 11; Detection; Luminescence; ViewLux uHTS Microplate Imager (PerkinElmer).
(§19) NOTES (numbers refer to Sequence numbers above)
(§20) 1, 2, 5. White Medium Binding Greiner 1536-well plates (Cat #789175-F, Greiner Bio-One, Monroe, NC); Reaction buffer: 50 mM Tris, pH 8.0, 3 mM MgCl2, 1 mM EDTA, 50 mM NaCl, 1 mM DTT, and 0.1 mg/mL BSA. Evaporation was prevented by covering assay plates with metal lids containing holes to allow gas diffusion.
(§21) 1. Six SMMTase were profiled: HNMT, GNMT, PNMT, COMT, NNMT, GAMT
(§22) 5. The corresponding substrate was used for each enzyme: HNMT - 5.3 uM Histamine; GNMT - >500 uM Glycine; PNMT - 16.2 uM Norephinephrine; COMT - 13.7 uM Norephinephrine; NNMT - 3.8 uM Nicotinamide; GAMT - 2.5 uM Guanidinoacetate.6, 8, 10. Room temperature
(§23) 6. Final reaction conditions: 10 nM COMT, 5 uM SAM, 15 uM norepinephrine, 50 mM Tris, pH 8.0, 3 mM MgCl2, 1 mM EDTA, 50 mM NaCl, 1 mM DTT, and 0.1 mg/mL BSA; refer to tables 2 and S1 for specific timing.
8. […]

In assay [2] the target is Guanidinoacetate N-methyltransferase (Homo sapiens) (UniProt Q14353). As to conditions: purified enzyme, MTase-Glo SAH luminescence; measured here: GAMT inhibition; at 40 µM; stronger effect = lower value.
Source text: as §1, §2, §3, §4, §5, §6, §7, §8, §9, §10, §11, §12, §13, §14, §15, §16, §17, §18, §19, §20, §21, §22, §23
8. […]

In assay [3] the target is Histamine N-methyltransferase (Homo sapiens) (UniProt P50135). As to conditions: purified enzyme, MTase-Glo SAH luminescence; measured here: HNMT inhibition; at 40 µM; stronger effect = lower value.
Source text: as §1, §2, §3, §4, §5, §6, §7, §8, §9, §10, §11, §12, §13, §14, §15, §16, §17, §18, §19, §20, §21, §22, §23
8. […]

The target of assay [4] is Nicotinamide N-methyltransferase (Homo sapiens) (UniProt P40261). As to conditions: purified enzyme, MTase-Glo SAH luminescence; measured here: NNMT inhibition; at 40 µM; stronger effect = lower value.
Source text: as §1, §2, §3, §4, §5, §6, §7, §8, §9, §10, §11, §12, §13, §14, §15, §16, §17, §18, §19, §20, §21, §22, §23
8. […]

Assay [5] deals with Phenylethanolamine N-methyltransferase (Homo sapiens) (UniProt P11086). As to conditions: purified enzyme, MTase-Glo SAH luminescence; measured here: PNMT inhibition; at 40 µM; stronger effect = lower value.
Source text: as §1, §2, §3, §4, §5, §6, §7, §8, §9, §10, §11, §12, §13, §14, §15, §16, §17, §18, §19, §20, §21, §22, §23
8. […]

Some of the results follow. Further columns of the screen follow, without active or inactive calls.
On the % scale 0 is the no-effect control and ±100 the full control effect.

With `COc1ccc(C(=O)N[C@H](Cc2ccccn2)C2CC(O)C2)cc1F` (stereo not given in full), the activity change, negative = inhibition in assay [1] is 0.944%; in assay [2], 0.412%; in assay [3] it was 2.1%; in assay [4], -1.41%; in assay [5], 8.93%.
With `C=CC(=O)Nc1cccc(Sc2nc(Nc3ccc(N4CCN(C)CC4)cc3)ncc2Cl)c1`, the activity change, negative = inhibition in assay [1] is -38.5%; in assay [2], 12.8%; in assay [3] it was -13.3%; in assay [4], -29.1%; in assay [5], 4.94%.
Take `O=C(CCCCN1CCOCC1)Nc1ccc(-c2cccnc2)cc1`: the activity change, negative = inhibition in assay [1] is -1.31%; in assay [2], -3.2%; in assay [3], -22.8%; in assay [4], -19.5%; in assay [5], -1.11%.
With `CC(=O)O[C@H]1[C@H](O)C[C@@]2(C)C(CC[C@]3(C)C2CC=C2C4CC(C)(C)CC[C@]4(C(=O)O)CC[C@]23C)C1(C)C` (stereo not given in full), the activity change, negative = inhibition was -7.51% in assay [1]; -14% in assay [2]; -2.03% in assay [3]; -22.2% in assay [4]; -14.9% in assay [5].
Consider `COc1cccc(CN2C(=O)c3cc4oc(C)cc4n3CC2(C)C(=O)NC2CCCCC2)c1OC` (stereo not given), for which the activity change, negative = inhibition in assay [1] was found to be 4.78%; in assay [2] it was 4.52%; in assay [3], 6.22%; in assay [4], 5.15%; in assay [5] it was 1.51%.
For `CN1C(=O)CO[C@H]2CN(c3ccc(C#N)cn3)C[C@H]21`, in that order: -2.65%, -3.81%, -2.52%, -8.62% and -4.32%.
As to `COc1ccc(C(=O)N2C[C@@H]3C[C@H](C2)c2ccc(NS(=O)(=O)c4ccc(OC)cc4)c(=O)n2C3)cc1`, the activity change, negative = inhibition was -2.58% in assay [1]; -4.45% in assay [2]; -0.79% in assay [3]; -11% in assay [4]; -3.43% in assay [5].
As to `O=C1CC2(CCN([S+](=O)([O-])c3cccc(C(F)(F)F)c3)CC2)Oc2ccccc21`, the activity change, negative = inhibition is -2.7% in assay [1]; -1.41% in assay [2]; 1.39% in assay [3]; -7.57% in assay [4]; -0.235% in assay [5].
Take `CC(/C=C/C1=CC2=CC(=O)C(C)(O)C(O)C2=CO1)=C\C(C)CCO` (stereo not given): the activity change, negative = inhibition in assay [1] was -1.12%; in assay [2], -2.17%; in assay [3] it was 6.52%; in assay [4], -14.4%; in assay [5] it was -5.48%.
In the same order, the values of `CCC1CC2C(C)=CC3CCCCC3C2(C)C2(OC(=O)C(C)(O)OC2=O)O1` (stereo not given) are 3.42%, 5.09%, 9.14%, -7.86% and 1.66%.
For `Cc1ccc(NC(=O)Cn2nc3n(Cc4ccc(F)cc4)c(=O)c4ccccc4n3c2=O)c(C)c1`, in that order: -2.51%, -0.782%, 0.727%, -1.84% and -1.88%.
In the same order, the values of `CN1C(=O)c2cc(C(=O)NCc3cccs3)nn2CC1(C)C(=O)NC1CCCC1` (stereo not given) are 1.05%, -0.09%, -1.08%, -2.58% and -3.48%.
On to `Cc1ccc(NC(=O)O[C@@H]2CC[C@]3(C)C(CC[C@@H](O)[C@H]3CC(=O)NCc3ccccc3)[C@]2(C)CO)cc1` (stereo not given in full), for which the activity change, negative = inhibition in assay [1] is -1.82%; in assay [2], -7.85%; in assay [3] it was -0.748%; in assay [4], -7.12%; in assay [5], -5.85%.
For `Cc1onc(-c2ccccc2)c1C(=O)N1CCN(c2ccc([N+](=O)[O-])cc2Cl)CC1`, in that order: 3.73%, -2.55%, 10.7%, -22.1% and -9.79%.
